# The list shows a part of the results.
# B1: BT3172pd (Bacteroides thetaiotaomicron) (protein)
# chain: MLPLRAEHYYYKQISLKEGLPSNVRCILRDEQGFIWIGTKAGLGKFDGHQLKRYKHQANDPHSLLHNLIYQIAEDKQHNIWILTEKGIARYQQQSNNFTFPTDEEGNYITAYSFCLVPDGILFGGKDRIYKYSYKDSSLRLLQYFNANSFKITALSVWDSKTLLCCSRWTGLYLVDLQTGEHRRPPFDCGPEITSMITDSKNRIWIAPYSGGLRCYSRDGKLSASYTTHNSSLSNDIVLSLAEREEQLWIGTDGGGINILHPETGEISQLEYIPGRENYSLPANSILCLHNDYNNNVWAGSTCNGLISIREVSMKTYTDVVPGNDRGLSNGTVRSLYRQSPDSIWIGTDGGGINLFSPHTEKFTHYSSTWGDKVAFISGFTPGKLLISLFSKGVFVFNPATGEKQPFTIIDKETTTRLCNRGKSVNLYQNTPNTVLFLGDHIYQYHLKEKKFSTITEEEGKDIVGTLVPFDHQENLTYINDIKHIYELDDQTSRLKTVFECYTDTVISSVSHDEQGHFWIGSNFGLIHYDPVLKSRTLVPTNLFTEINMVLCDQKGKVWIGVDNMLFAYFIKEQKFVLFGESNGAIQNEYLPNARLVNEQGDAYIGGVKGMLRIDGQLLLNTSEMPELQLLDITINGESANHEWYNHPAKISVPWNSNISIRIMSREEDIFRQKIYRYQIEGLNNEYTESYNPELVIRSLLPGSYRIMASCTAKDGSWIPDQQVLELTVLPPWYRTHHHHHH
# Experiments:
# Assay in all cases: glycan array binding signal (z-score within array); higher = stronger binding
# Conditions in all cases: glycan notation: IUPAC condensed, linker removed
# [1] = biological target: Neu5Ac(a2-6)GlcNAc(b1-4)GlcNAc(b1-4)GlcNAc
# Summary of the method: (§1)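 The binding signal is a Z-score computed within each array and averaged over linkers. Arrays of the same protein sequence at different concentrations or buffers were also averaged together. Data originate from 3228 arrays in the Consortium for Functional Glycomics database, kept only where the protein sequence was available.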
# Neu5Ac(a2-8)Neu5Ac = biological target: Neu5Ac(a2-8)Neu5Ac
# Summary of the method: as §1
# [2] = biological target: Neu5Ac(a2-8)Neu5Ac(a2-3)Gal(b1-3)GalNAc(b1-4)[Neu5Ac(a2-3)]Gal(b1-4)Glc
# Summary of the method: as §1
# [3] = biological target: Neu5Ac(a2-8)Neu5Ac(a2-3)Gal(b1-3)GalNAc(b1-4)[Neu5Ac(a2-8)Neu5Ac(a2-3)]Gal(b1-4)Glc
# Summary of the method: as §1
# [4] = biological target: Neu5Ac(a2-8)Neu5Ac(a2-3)Gal(b1-4)Glc
# Summary of the method: as §1
# [5] = biological target: Neu5Ac(a2-8)Neu5Ac(a2-3)Gal(b1-4)GlcNAc
# Summary of the method: as §1
# [6] = biological target: Neu5Ac(a2-8)Neu5Ac(a2-3)[Gal(b1-3)GalNAc(b1-4)]Gal(b1-4)Glc
# Summary of the method: as §1
# [7] = biological target: Neu5Ac(a2-8)Neu5Ac(a2-3)[GalNAc(b1-4)]Gal(b1-4)Glc
# Summary of the method: as §1
# [8] = biological target: Neu5Ac(a2-8)Neu5Ac(a2-8)Neu5Ac
# Summary of the method: as §1
# [9] = biological target: Neu5Ac(a2-8)Neu5Ac(a2-8)Neu5Ac(a2-3)Gal(b1-4)Glc
# Summary of the method: as §1
# [10] = biological target: Neu5Ac(a2-8)Neu5Ac(a2-8)Neu5Ac(a2-3)[Gal(b1-3)GalNAc(b1-4)]Gal(b1-4)Glc
# Summary of the method: as §1
# [11] = biological target: Neu5Ac(a2-8)Neu5Ac(a2-8)Neu5Ac(a2-3)[GalNAc(b1-4)]Gal(b1-4)Glc
# Summary of the method: as §1
# [12] = biological target: Neu5Ac(a2-8)Neu5Ac(a2-8)Neu5Ac(a2-8)Neu5Ac(a2-3)[GalNAc(b1-4)]Gal(b1-4)Glc
# Summary of the method: as §1
# [13] = biological target: Neu5Ac(a2-8)Neu5Gc(a2-3)Gal(b1-4)GlcNAc
# Summary of the method: as §1
# [14] = biological target: Neu5Ac(b2-6)Gal(b1-4)GlcNAc
# Summary of the method: as §1
# Neu5Ac(b2-6)GalNAc = biological target: Neu5Ac(b2-6)GalNAc
# Summary of the method: as §1
# [15] = biological target: Neu5Ac9Ac(a2-3)Gal(b1-3)GlcNAc
# Summary of the method: as §1
# [16] = biological target: Neu5Ac9Ac(a2-3)Gal(b1-4)GlcNAc
# Summary of the method: as §1
# [17] = biological target: Neu5Ac9Ac(a2-6)Gal(b1-4)GlcNAc
# Summary of the method: as §1
# [18] = biological target: Neu5Gc(a2-3)Gal(b1-3)GlcNAc
# Summary of the method: as §1
# [19] = biological target: Neu5Gc(a2-3)Gal(b1-3)[Fuc(a1-4)]GlcNAc
# Summary of the method: as §1
# Neu5Gc(a2-3)Gal(b1-4)Glc = biological target: Neu5Gc(a2-3)Gal(b1-4)Glc
# Summary of the method: as §1
# [20] = biological target: Neu5Gc(a2-3)Gal(b1-4)GlcNAc
# Summary of the method: as §1
# [21] = biological target: Neu5Gc(a2-3)Gal(b1-4)GlcNAc(b1-3)Gal(b1-4)GlcNAc(b1-2)Man(a1-3)[Neu5Gc(a2-3)Gal(b1-4)GlcNAc(b1-3)Gal(b1-4)GlcNAc(b1-2)Man(a1-6)]Man(b1-4)GlcNAc(b1-4)GlcNAc
# Summary of the method: as §1
# [22] = biological target: Neu5Gc(a2-3)Gal(b1-4)[Fuc(a1-3)]GlcNAc
# Summary of the method: as §1
# [23] = biological target: Neu5Gc(a2-6)Gal(b1-4)GlcNAc
# Summary of the method: as §1
# Neu5Gc(a2-6)GalNAc = biological target: Neu5Gc(a2-6)GalNAc
# Summary of the method: as §1
# [24] = biological target: Neu5Gc(a2-8)Neu5Ac(a2-3)Gal(b1-4)GlcNAc
# Summary of the method: as §1
# [25] = biological target: Neu5Gc(a2-8)Neu5Gc(a2-3)Gal(b1-4)GlcNAc
# Summary of the method: as §1
# [26] = biological target: Neu5Gc(a2-8)Neu5Gc(a2-3)Gal(b1-4)GlcNAc(b1-3)Gal(b1-4)GlcNAc
# Summary of the method: as §1
binder,measurement,setting,value
B1,glycan array binding signal (z-score),[1],-0.302
same,glycan array binding signal (z-score),Neu5Ac(a2-8)Neu5Ac,0.482
same,glycan array binding signal (z-score),[2],-0.117
same,glycan array binding signal (z-score),[3],0.261
same,glycan array binding signal (z-score),[4],0.188
same,glycan array binding signal (z-score),[5],-0.788
same,glycan array binding signal (z-score),[6],-0.415
same,glycan array binding signal (z-score),[7],-0.552
same,glycan array binding signal (z-score),[8],0.136
same,glycan array binding signal (z-score),[9],-0.434
same,glycan array binding signal (z-score),[10],-0.223
same,glycan array binding signal (z-score),[11],-0.591
same,glycan array binding signal (z-score),[12],-0.918
same,glycan array binding signal (z-score),[13],0.121
same,glycan array binding signal (z-score),[14],-1.02
same,glycan array binding signal (z-score),Neu5Ac(b2-6)GalNAc,0.736
same,glycan array binding signal (z-score),[15],-0.414
same,glycan array binding signal (z-score),[16],-0.598
same,glycan array binding signal (z-score),[17],-0.178
same,glycan array binding signal (z-score),[18],-0.493
same,glycan array binding signal (z-score),[19],0.1
same,glycan array binding signal (z-score),Neu5Gc(a2-3)Gal(b1-4)Glc,-0.286
same,glycan array binding signal (z-score),[20],-0.212
same,glycan array binding signal (z-score),[21],-0.18
same,glycan array binding signal (z-score),[22],-0.183
same,glycan array binding signal (z-score),[23],0.172
same,glycan array binding signal (z-score),Neu5Gc(a2-6)GalNAc,-0.106
same,glycan array binding signal (z-score),[24],-0.537
same,glycan array binding signal (z-score),[25],-0.391
same,glycan array binding signal (z-score),[26],-0.102

# Reference: the supplement of paper PMC8728848
